Results from the supplement of paper PMC12632987.
In all, about 2,300 sequences were measured (“median log2 fold change of GCK-ALFA target abundance (FLAG IP / Myc IP barcode read proportion)”: median about 0.095, lowest 2% from about -0.47 on). The list shows a part of the results.

B1: LC3A_free_8_2531 (protein)
chain: NVQEMVDLALKELDKLEKIAVEKAKELGLSRTDILELELVIGSAKIDIIEASDKSVEEIYKLFKEELKEILEEAKKYGEELYKEVEKKAKEALKKMEEAK
B2: LC3A_free_39_2232 (protein)
chain: MEEELEKKIKEIAKEGGIDYEYVKAKMEEIQKVGGLSKEEMLKIAEKLLEAVKAGADAEEILDRMLEITKELKAQGKSPEEILKAILEEIEDARNLIPLD
B3: LC3A_3_1650 (protein)
chain: AEERIEELLEELRELGKSEEVLEAVRRALEALLERGYYEALETFIELMRELADLSDELLLQLANDVLELVETSDLSEEELTEEIKKIATTIRNEGEIIEL
B4: LC3A_28_1210 (protein)
chain: SAVEEAIAAFRAQVAAAIAAGEPQTVVVRIPGTVTPEGARRIMEAVREEVARAADIPGLAIVIDLDGDVSPEVERIVGEAAEEIEAEFPNVTVIIALEER
B5: LC3A_3_1756 (protein)
chain: MEEKLEEARERLKKLGFSEEVIEKALEVIEELLKKGFEEAVETLLEELERLKDLPDEILLAMLEDILEYVTTNDINEEEVIEKIKEEARVAENESEIIEL
B6: LC3A_28_1306 (protein)
chain: SALRERFEAAIAEAREAAAAGEPVVVTVDISAEELREHLEEILELLERLGEVASEAPGATIIVDVDGSTPAEDLAKLGKRLEEIEKKYPNVTVIIAIRDE
B7: LC3A_3_1546 (protein)
chain: MEELKKETLEELKAAGASDEVIEAAKEAFDLLIEKGYEEALKVLAEETKKLIGLPDELLLDFFTEVLNTLKTEDLNEEEVIEKIKEIARTTKNEAEIEEL
B8: LC3A_28_667 (protein)
chain: SALEENLEKALAEAKELAAKGEPAVITIRVPGDATEEEVEKVIEAMEEIAEILKDIPGSAIIIDLEEGVEEEHRDKLIDAAEEIEKKYPNVTVIIAYPER
B9: LC3A_127_183 (protein)
chain: EVKELAEKLIEKLEAAIKELDKPDPDLEKIEKLLKEALELAKKLVELDPRFEPVLKDIEQAIKEFERLKKAPPEEQEALREHLQMLLDGAIIEVESLLLK
B10: LC3A_28_878 (protein)
chain: MSVEEALAEARAVVREAVARGEEALVEIKITEPISDEEAKELVAGMEEIVEEGASLPRLSIVIDLSNKVSQKAKDIIADGAEEIEKRYPNVTVIIALEEE
B11: LC3A_28_678 (protein)
chain: SPLEKELEEALKKAKEAAAKGEPTVITIKVPGDATQEEIEKFIKALKEIAEILKDVKGSAIIIDLSADLSQEGRDKIIDAAEEINKKYPNVTVIIALEEK
B12: LC3A_free_26_2166 (protein)
chain: DEFLDIASLDAAIDDLEKALALAEANPNVSEELIKLLKEALAHLEKGTLESFKKAIKYLEEALKLVKENKKIPEEDKEKLLELLERALAHAKENAEILES
B13: LC3A_free_39_2214 (protein)
chain: SEEELEELIKEVAKESGLDYEYIKKKIEEIKEIAGLSLEQMKELVKAILEAVKAGADAEEILKRILALAKELKAAGKSPEEIAEALIEEAEDFRNLIPLD
B14: LC3A_3_1683 (protein)
chain: MEELVKEVLEVAKENGLSEEALKALEELLDLLKKRGYLKAIERLLEKLKELKDVDSETLKAMFEDLLYKLKTEDLSEEEIVELIDEEAEVARNEKEIEEL
B15: LC3A_28_654 (protein)
chain: EEVEKELKEALKEAEEAKKKKEPAVITIKVSGKVNEEELKKILETLEKIAELLKDIKGSAIIIDLDKDVKEEFKNKLIDKAEELEKKYPNVTVIIALEER
B16: LC3A_3_1769 (protein)
chain: MEERIEEAAERLRALGADEELIEKAEEALRLLLERGLEETAERFEETLEELVKKSKELALELAEEVLELLKTSKLSPEELAEEVEELIRLALLEAEIEEL
B17: LC3A_102_142 (protein)
chain: DLEKKREELRKRVLEAVKKALEADKSLSEEEKKRLLELAETAVDAALENTVEEAQHGFTDIVAEDKRITALDEIEKINPEIAELLKKLLEEAEKELRAFL
B18: LC3A_28_889 (protein)
chain: SAALESAKAALAQVKEAVAAGDQSPLVLEVKAPSDEENTEKFIELLREIAEAASALSKVTIIIDISEEVSEENRDRIIDAADEIEEEYPNVTVIIALPES
B19: LC3A_74_2072 (protein)
chain: MLTNEEVEKMVDLIGELKGLLELLTEKGLLTEEEVKEAKKAIEEALKILKKEGKLTEAVEGGIDLYAELVKLRLENDPEKAKELFEKSLKELKKLIEKAK

Target: MAP1LC3A, Q9H492
Test: median log2 fold change of GCK-ALFA target abundance (FLAG IP / Myc IP barcode read proportion) (log2 ratio); each designed protein is fused to an ALFA-tag nanobody in HEK293 cells to bring the named protein to FLAG-tagged glucokinase (GCK); Myc marks an untargeted standard; higher = target protein stabilised (more abundant)
Details: target protein: 3xFLAG-MCP-GCK-ALFA reporter; HEK293 landing pad (RPLP)
Procedure, shortened: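 HEK293 landing-pad cells received a recombined binder library fused to the ALFA nanobody and were induced with 2 μg mL^−1 doxycycline, then transfected with a plasmid encoding a FLAG-tagged target and a Myc-tagged standard. Lysates were collected after 48 h for anti-FLAG and anti-Myc immunoprecipitation, and the circular RNA barcodes were reverse transcribed, amplified and sequenced. Target abundance for each binder is the median log2 ratio of FLAG to Myc barcode read proportions. Barcodes had to reach a proportion of at least 10^−7 in both replicates, each binder needed at least 3 barcodes per replicate, a pseudocount of 10^−6 was applied, and the two replicates were pooled.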

Binder	median log2 fold change
B1	-0.0124
B2	0.145
B3	0.184
B4	0.115
B5	0.303
B6	0.282
B7	0.259
B8	-0.0934
B9	0.181
B10	0.258
B11	0.295
B12	0.247
B13	-0.832
B14	0.251
B15	0.153
B16	0.0632
B17	-0.165
B18	-0.157
B19	-0.32
